For 39 compounds, AQP5-HiBiT luminescence results are on record in the supplement of paper PMC8821664.

Molecules are shown by their SMILES. Counter-ions that a name gives are not always drawn. The list shows a part of the results. Many values rest on one well or one pass, so single values are uncertain.
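Note: monoclonal Beas-2B line stably carrying CMV promoter-driven AQP5-HiBiT, 5,000 cells per well in 384-well plates, lytic HiBiT plus LgBiT NanoLuc luminescence, FDA-approved drug library screen.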

The subject of this assay is Beas-2B AQP5-HiBiT reporter cells. In words: AQP5-HiBiT luminescence relative to vehicle (ratio to vehicle); higher = higher AQP5-HiBiT protein abundance. The settings on record: 10 µM; 18 h.
For the compound `CCCCCCCCc1ccc(CCC(N)(CO)CO)cc1` [Fingolimod (FTY720) hydrochloride], the AQP5-HiBiT luminescence was 2.01. Then `O=C(O)[C@@H](S)[C@@H](S)C(=O)O` [Succimer], with 0.639; and `CC(C)CN(C[C@@H](O)[C@H](Cc1ccccc1)NC(=O)O[C@H]1CO[C@H]2OCC[C@H]21)S(=O)(=O)c1ccc(N)cc1` [Darunavir], with 1.02.

As for `Cc1cc2nc3c(=O)[nH]c(=O)nc-3n(C[C@H](O)[C@H](O)[C@H](O)CO)c2cc1C` [Riboflavin], the AQP5-HiBiT luminescence came to 1.07. Then `NCCc1c[nH]cn1` [Histamine], with 1.16; and `N#Cc1ccc(C(c2ccc(C#N)cc2)n2cncn2)cc1` [Letrozole], with 0.893. For `Cc1ccc(Sc2ccccc2N2CCNCC2)c(C)c1` [Vortioxetine], the AQP5-HiBiT luminescence amounted to 0.96. Turning to `CCCc1nc(C(C)(C)O)c(C(=O)OCc2oc(=O)oc2C)n1Cc1ccc(-c2ccccc2-c2nnn[nH]2)cc1` [Benicar], the AQP5-HiBiT luminescence is 0.87. Consider `CNC(=C[N+](=O)[O-])NCCSCc1csc(CN(C)C)n1` [Nizatidine], for which the AQP5-HiBiT luminescence is 1.06. On to `CCc1ccc(CCOc2ccc(CC3SC(=O)NC3=O)cc2)nc1` (centres undefined) [Pioglitazone hydrochloride], for which the AQP5-HiBiT luminescence came out at 0.662. Then `CN(CCOc1ccc(CC2SC(=O)NC2=O)cc1)c1ccccn1` (centres undefined) [Rosiglitazone maleate], with 0.676; and `COc1ccc(CCN(C)CCCC(C#N)(c2ccc(OC)c(OC)c2)C(C)C)cc1OC` (centres undefined) [Verapamil hydrochloride], with 1.08; and `O=C(CCCN1CCC(O)(c2ccc(Cl)cc2)CC1)c1ccc(F)cc1` [Haloperidol], with 1.1. Then `CC1COc2c(N3CCN(C)CC3)c(F)cc3c(=O)c(C(=O)O)cn1c23` (centres undefined) [Ofloxacin], with 0.881; and `CC(C(=O)O)c1ccc2c(c1)[nH]c1ccc(Cl)cc12` (centres undefined) [Carprofen], with 1.03; and `CC(=O)O[C@]1(C(C)=O)CC[C@H]2[C@@H]3C[C@H](C)C4=CC(=O)CC[C@]4(C)[C@H]3CC[C@@]21C` [Farlutin], with 0.952. Then `Cc1nc(Nc2ncc(C(=O)Nc3c(C)cccc3Cl)s2)cc(N2CCN(CCO)CC2)n1` [Dasatinib], with 0.298. For `CCC(=O)NCC[C@@H]1CCc2ccc3c(c21)CCO3` [Ramelteon], the AQP5-HiBiT luminescence is 0.864. `O=C(O)C1(C(=O)O)CCC1.[NH2-].[NH2-].[Pt+2]` [Carboplatin]: the AQP5-HiBiT luminescence turned out to be 1.11. With `Cc1cccc(C)c1OCC(C)N` (centres undefined) [Mexiletine hydrochloride], the AQP5-HiBiT luminescence turned out to be 0.684. On to `Cc1ccc(NC(=O)c2ccc(CN3CCN(C)CC3)cc2)cc1Nc1nccc(-c2cccnc2)n1` [Imatinib (STI571)], for which the AQP5-HiBiT luminescence stood at 1.33. Then `O=C1O[C@H](CO)[C@@H](O)[C@H](O)[C@H]1O` [Delta-Gluconolactone], with 0.853; and `CC(C(=O)O)c1ccc(-c2ccccc2)c(F)c1` (centres undefined) [Flurbiprofen], with 0.869; and `CCc1cc2c(cc1CC)CC(NC[C@H](O)c1ccc(O)c3[nH]c(=O)ccc13)C2` [Indacaterol], with 0.829. As to `C[N+]1(CCCCC[N+]2(C)CCCC2)CCCC1` [Pentolinium Tartrate], the AQP5-HiBiT luminescence was found to be 0.641. `O=C1CCC(N2C(=O)c3ccccc3C2=O)C(=O)N1` (centres undefined) [Thalidomide]: the AQP5-HiBiT luminescence stood at 0.756. Then `Nc1ncnc2c1ncn2[C@@H]1O[C@H](CO)[C@@H](O)[C@H]1O` [Adenosine], with 0.774; and `N[C@H]1CONC1=O` [L-Cycloserine], with 0.517.

For `O=C(c1ccccc1)c1ccc2n1CCC2C(=O)O` (centres undefined) [Toradol], the AQP5-HiBiT luminescence came to 0.994. Then `N=C(NCCCCCCNC(=N)NC(=N)Nc1ccc(Cl)cc1)NC(=N)Nc1ccc(Cl)cc1` [Chlorhexidine hydrochloride], with 0.736; and `O=c1oc2ccccc2c(O)c1Cc1c(O)c2ccccc2oc1=O` [Dicumarol], with 0.68. Then `O=C(N[C@H](CO)[C@H](O)c1ccc([N+](=O)[O-])cc1)C(Cl)Cl` [Chloramphenicol], with 1.18; and `c1ccc([C@H]2CN3CCSC3=N2)cc1` [Levamisole hydrochloride], with 0.722. For the compound `CC(C)[C@@H]1CC[C@@H](C)C[C@H]1O` [L-Menthol], the AQP5-HiBiT luminescence was 0.742. Then `c1cc(CN2CCCNCCNCCCNCC2)ccc1CN1CCCNCCNCCCNCC1` [Plerixafor], with 0.618.

Regarding `COc1cccc2c1C(=O)c1c(O)c3c(c(O)c1C2=O)C[C@@](O)(C(=O)CO)C[C@@H]3O[C@H]1C[C@H](N)[C@@H](O)[C@H](C)O1` [Epirubicin hydrochloride], the AQP5-HiBiT luminescence came to 0.737.

Regarding `CCCCC(=O)O[C@H]1CC[C@H]2[C@@H]3CCc4cc(O)ccc4[C@H]3CC[C@]12C` [Estradiol valerate], the AQP5-HiBiT luminescence came out at 0.92. For the compound `O=C1c2cccc3c2[C@H](CCC3)CN1[C@@H]1CN2CCC1CC2` [Palonosetron hydrochloride], the AQP5-HiBiT luminescence amounted to 1.11.

With `C#C[C@]1(OC(C)=O)CC[C@H]2[C@@H]3CCC4=C[C@@H](OC(C)=O)CC[C@@H]4[C@H]3CC[C@@]21C` [Ethynodiol diacetate], the AQP5-HiBiT luminescence was determined as 0.74.
